Assay results published in PubChem BioAssay (Tox21).
The inconclusive results got no clear call from the source; some entries with a clear call stand among them for comparison. No potency is given beside an inconclusive call; the fits are too rough. Calls of active or inactive are those of the source. Calls come from the whole dose curve; as a rule, active = well fitted cell-killing curve with a large enough effect in the repeat runs; inconclusive = weak or mixed curves, or effect the other way; inactive = no such curve, though single readings can be large or run the other way.

Assay: qHTS assay to identify small molecule antagonists of the thyroid receptor (TR) signaling pathway - cell viability counter screen (AID 743064); note: nearly all actives have a fitted effect of over 50% in size
Details: GH3.TRE-Luc viability, CellTiter-Fluor, 24 h; activity change, negative = cytotoxic: at 70.3 µM (top of the series) unless noted
In short: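 GH3.TRE-Luc rat pituitary cells carrying a TRE-luciferase reporter were treated with compound plus 1 nM T3 (final) for 23.5 h at 37 °C. Viability was then read in the same wells by CellTiter-Fluor fluorescence after a further 30 min.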
% is set by controls: 0 for no effect and ±100 for the full control effect; potency is the fitted concentration of half-maximal effect; tags give direction and shape of the fitted curve.

Row | SMILES | activity change, negative = cytotoxic | Potency
1 | CCOP(=O)(OCC)Oc1cc(C)nc(C(C)C)n1 | inactive: 11.2% [at 95 µM] | 
2 | C=CCc1ccc2c(c1)OCO2 |  | inconclusive [rising, partial curve, poor fit]
3 | Oc1ccccc1Cl |  | inconclusive [rising, full curve, poor fit]
4 | O=C1C(Cl)C(CCl)CN1c1cccc(C(F)(F)F)c1 (centres undefined) | inactive: -0.697% | 
5 | C#CCOC(C(=O)OCCN(C)C)(c1ccccc1)c1ccccc1 |  | inconclusive [cytotoxic, partial curve]
6 | COC(=O)C(C)Oc1ccc(Oc2ccc(Cl)cc2Cl)cc1 (centres undefined) | inconclusive: 31.4% | 
7 | CCC(Cl)[N+](=O)[O-] (centres undefined) | inactive: 6.16% [at 95 µM] | 
8 | NC(=O)C(Cl)Cl | inactive: 6.21% | 
9 | CCOc1cc(OP(=S)(OC)OC)nc(CC)n1 | inactive: -2.62% | 
